# Experimental data: patent US20240026036A1 (AstraZeneca / MedImmune, published 2024)
# B1: TNFR2-Fc_varB (Fc fusion)
# chain: LPAQVAFTPYAPEPGSTCRLREYYDQTAQMCCSKCSPGQHAKVFCTKTSDTVCDSCEDSTYTQLWNWVPECLSCGSRCSSDQVETQACTREQNRICTCRPGWYCALSKQEGCRLCAPLRKCRPGFGVARPGTETSDVVCKPCAPGTFSNTTSSTDICRPHQICNVVAIPGNASMDAVCTSTSPTRSMAPGAVHLPQPVSTRSQHTQPTPEPSTAPSTSFLLPMGPSPPAEGSTGD[human IgG1 Fc not shown]GGGGSGGGGSQVQLVQSGAEVKKPGSSVKVSCKASGGTFSTYGISWVRQAPGQCLEWMGGIIPIFDTGNSAQSFQGRVTITADESTSTAYMELSSLRSEDTAVYYCARSSRIYDLNPSLTAYYDMDVWGQGTMVTVSSGGGGSGGGGSGGGGSGGGGSQSVLTQPPSVSAAPGQKVTISCSGSSSNIGNNYVSWYQQLPGTAPKLLIYDNNKRPSGIPDRFSGSKSGTSATLGITGLQTGDEADYYCGTWDSSLSAWVFGCGTKLTVL
# B2: TNFR2-Fc_VH #4 (Fc fusion)
# chain: LPAQVAFTPYAPEPGSTCRLREYYDQTAQMCCSKCSPGQHAKVFCTKTSDTVCDSCEDSTYTQLWNWVPECLSCGSRCSSDQVETQACTREQNRICTCRPGWYCALSKQEGCRLCAPLRKCRPGFGVARPGTETSDVVCKPCAPGTFSNTTSSTDICRPHQICNVVAIPGNASMDAVCTSTSPTRSMAPGAVHLPQPVSTRSQHTQPTPEPSTAPSTSFLLPMGPSPPAEGSTGD[human IgG1 Fc not shown]GGGGSGGGGSQVQLVQSGAEVKKPGSSVKVSCKASGGTFSTYGISWVRQAPGQGLEWMGGIIPIFDTGNSAQSFQGRVTITADESTSTAYMELSSLRSEDTAVYYCARSSRIYDLNPSLTAYYDMDVWGQGTMVTVSSGGGGSGGGGSGGGGSAQSVLTQPPSVSAAPGQKVTISCSGSSSNIGNNYVSWYQQLPGTAPKLLIYDNNKRPSGIPDRFSGSKSGTSATLGITGLQTGDEADYYCGTWDSSLSAWVFGGGTKLTVL
# Tests used:
# Experiment in all cases: cell-based or functional assay
# [1] = target: T1, Recombinant mouse NGF (R&D Systems) (mouse, UniProt P01139 122-241)
# [2] = target: Recombinant human TNFα (R&D Systems) (human, UniProt P01375 part only)
# [3] = target: T1, Recombinant mouse NGF (R&D Systems); remark: listed apart in the source
# [4] = target: Recombinant human NGF (Sigma) (human, UniProt P01138 part only)
# Chain of UniProt P01138 (P01138 122-241 limits assumed): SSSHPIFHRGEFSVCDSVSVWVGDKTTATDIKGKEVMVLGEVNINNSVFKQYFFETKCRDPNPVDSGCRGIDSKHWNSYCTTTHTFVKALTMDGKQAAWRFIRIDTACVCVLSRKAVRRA
# T1 sequence (P01139 122-241 limits assumed): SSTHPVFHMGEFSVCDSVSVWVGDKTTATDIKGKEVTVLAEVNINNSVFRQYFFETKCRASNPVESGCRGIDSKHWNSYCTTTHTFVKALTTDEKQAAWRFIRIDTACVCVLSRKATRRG
# Chain of UniProt P01375 (P01375 77-233 limits assumed): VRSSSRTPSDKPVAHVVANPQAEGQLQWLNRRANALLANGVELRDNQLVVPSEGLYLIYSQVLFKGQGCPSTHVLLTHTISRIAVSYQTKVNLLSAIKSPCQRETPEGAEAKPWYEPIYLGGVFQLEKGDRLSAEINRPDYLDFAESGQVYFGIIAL
Binder,"IC50, inhibition of murine NGF-induced TF-1 proliferation [1] [µg/mL]","IC50, inhibition of TNFα-induced Caspase 3 activity in U937 cells [2] [nM]",IC50 (read off the curve) [3] [nM],IC50 (read off the curve) [4] [nM]
B1,0.364,0.165,–,–
B2,–,–,~0.1,~0.5
